These results are taken from the RNAGym collection of RNA variant scans (doi:10.1093/nar/gkz1192).

To fix the notation:
B1: CPEB3 Ribozyme (parent)
chain: UAACAGGGGGCCACAGCAGAAGCGUUCACGUCGCAGCCCCUGUCAGAUUCUGGUGAAUCUGCGAAUUCUGCUGUAUAUCUC

The source gives no read counts; variants with many changes may rest on few reads.

The variants in the data set derive from B1. As to the kind of experiment: self-cleavage, relative activity (ratio to wild type); higher = more cleavage; in vitro, sequencing. A digest of the protocol:
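Relative activity compares each variant's cleaved/total read fraction with that of the unmutated ribozyme. To get these fractions, barcoded CPEB3 ribozyme libraries from rounds of error-prone PCR were transcribed with T7 RNA polymerase for 5 hours at 37°C and then given 15 min of DNase I treatment before EDTA was added. The RNAs were reverse transcribed with template switching and sequenced on Illumina, and DNA sequencing linked barcodes to variants. A minimum of 5 reads applied, and three batches were averaged.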
Turning to A3G U31C U51A A57G U60C, the self-cleavage came to 0.39. With A3G G24A U43C A65G the figure was 0.29; with A3G C12G A13U G19C U31C A35G U69C, 0.26; with A3G G8A A15U G19A U43A U78C, 0.48.

A3G G6A U78C: the self-cleavage is 0.54. With A3G G9A A15U the figure was 0.14; with A3G G7C A18U A56U U72C U74A U80C, 0.03. With A3G G9A A15G U26C C81U the figure was 0.1.

Turning to A3G C23A G33A, the self-cleavage stood at 0.31. As to A3G G6A G24A U31C A57G, the self-cleavage amounted to 0.09.

Consider A3G G24A U26C C29A A56G U72A, for which the self-cleavage was found to be 0.06. With A3G U26C U51C A64G, the self-cleavage amounted to 0.09. With A3G U25C C38U U76C the figure was 0.6. With A3G C17U U25G A47G the figure was 0.38; with A3G G16C U67C, 0.02; with A3G U26C A64G C68A U69G, 0.25.

Take A3G U31A U49A: the self-cleavage amounted to 0.56. The value for A3G G19C U54C was 0.5; that for A3G G6A C12A U43C U74A U78C was 0.05; that for A3G U25A A47G A57G was 0.08. With A3G G52A A65G U67A the figure was 0.26. With A3G U26C U41G U49C U60C the figure was 0.43. A3G G6A A15U U49A A57C A77U U78C: the self-cleavage is 0.05. The value for A3G U26A C38U C50A U74A was 0.68; that for A3G U26C A28C was 0.52. The value for A3G U25C U26C A45U U69G was 0.3. The value for A3G C11G A18U A21G A56U A64U was 0.06; that for A3G C11G U25C G30A A35G was 0.33; that for A3G G8U A18G A21U U26C G36A U60A was 0.03. A3G G6A A35U A77U: the self-cleavage turned out to be 0.13.

In the case of A3G G16A A18G G33A C40A A64G U67C, the self-cleavage stood at 0.11. On to A3G G9A A35U, for which the self-cleavage was found to be 0.12. With A3G U26C U49C A56G U60C the figure was 0.51; with A3G G6A A18U, 0.09; with A3G G8A A15G U26A G30A, 0.63. With A3G U25C A45G U58A U80C the figure was 0.12; with A3G G9U A13U A20G A28G U41A A64G, 0.07; with A3G G10C A15C U48C, 0.08. Consider A3G U31C A56G, for which the self-cleavage was determined as 0.69. With A3G G19U A28G C29G A65G U78C U80C the figure was 0.2; with A3G U25C U31A U67C, 0.28; with A3G C23G U48A, 0.44. The value for A3G U25C G33A A64U was 0.2; that for A3G G7C U26C was 0.42; that for A3G C11G A35U G52C U60A U69C U78C was 0.08. For A3G G30A U76C, the self-cleavage is 0.18. With A3G C11G A15U A18U C40A A64G U72C the figure was 0.07. For A3G G9A U80A, the self-cleavage turned out to be 0.25. Regarding A3G G9A U31A U74C, the self-cleavage is 0.43. For the variant A3G U41A U48C, the self-cleavage amounted to 0.23. With A3G G30A A35G the figure was 0.45; with A3G U25C A45U, 0.56. The value for A3G G9A A64U was 0.41; that for A3G G7A A21G A77U was 0.5; that for A3G U41A A45G A56C A64U was 0.22. With A3G C23U A28G U31A A57G A65G U80C the figure was 0.09; with A3G U26A C38U U41G U58C A64U U69C, 0.08. Turning to A3G C14U U25A U26A C34A U48C U72C, the self-cleavage amounted to 0.06. The value for A3G G30A A45G U72A was 0.08; that for A3G G6A G16U A57G G61A C62U U69C was 0.04. The value for A3G G7U A20G G33U U54G was 0.07; that for A3G G16U A28G U31A was 0.37; that for A3G U26C U41A U54G U72A was 0.11. With A3G G19U A20U A57G A65G U67C the figure was 0.05.

Take A3G U26C U41C A45U U49C: the self-cleavage amounted to 0.08. The value for A3G C39U C40U was 0.27; that for A3G G55A U58C was 0.29; that for A3G U26C U60A U74A was 0.36. Consider A3G G7U C37A A64G, for which the self-cleavage amounted to 0.05. A3G G6A A35U U69A: the self-cleavage was determined as 0.38. The value for A3G G10C U41C A56G U69C was 0.1.

In the case of A3G U26C U67C U76A, the self-cleavage stood at 0.32. Consider A3G C29U A57C U74C, for which the self-cleavage was determined as 0.74. The value for A3G U25A U26A U49C U76A U78C was 0.11; that for A3G C27U G52A U76C was 0.15; that for A3G G7A A15G A20G G42A G63A U80C was 0.04. As to A3G G8A U41C U51C U60C C71U, the self-cleavage turned out to be 0.14.

For A3G G22C U51C A56G C79A, the self-cleavage is 0.34. The value for A3G G8U U25C U26A U41A U43C U80C was 0.31; that for A3G G24A U31A U48C was 0.18; that for A3G G9U C40U U48A G61U was 0.27. With A3G G7C A20G U72A the figure was 0.06; with A3G G24C A45G A57G U60A A64G U66C, 0.35. On to A3G C29U A45G U51C, for which the self-cleavage came to 0.2.

On to A3G C12U U43A U67C, for which the self-cleavage amounted to 0.64. Regarding A3G C27A U48C, the self-cleavage amounted to 0.06.

Regarding A3G G6U C17A A18G, the self-cleavage amounted to 0.03. With A3G G7A U48C U74A the figure was 0.09.

In the case of A3G U26C U69C, the self-cleavage is 0.26. With A3G G7C U41C the figure was 0.11. The value for A3G G6C A65G was 0.56; that for A3G U26C A28C A35G was 0.55. For the variant A3G G10A C32U U78C U80G, the self-cleavage amounted to 0.06. With A3G G9A U60C the figure was 0.09; with A3G G6A A15U U41A A45U, 0.12. With A3G G9A G33A U51C A56C U58A U78A the figure was 0.06. The value for A3G C71A U74C was 0.72; that for A3G C11A A45U U49C A57G U80C was 0.51; that for A3G U25C A56G U80C was 0.33. With A3G G16A U25G A56G, the self-cleavage came out at 0.08. The value for A3G U26C U66C was 0.4; that for A3G C11G U25C U48C was 0.08; that for A3G C14U G63A was 0.55. The value for A3G G10U A18U U51A was 0.11; that for A3G U41A A64G U72C was 0.47; that for A3G C27U U41C U67C G70A was 0.06. Regarding A3G C27G G55U A65G U67A, the self-cleavage stood at 0.29.

On to A3G C23U C37A, for which the self-cleavage came to 0.08.

With A3G G6U U25C A28G U43C U58C, the self-cleavage was 0.21.

Regarding A3G G10U U49C, the self-cleavage amounted to 0.32. Turning to A3G G7A C29U A35G, the self-cleavage is 0.1.

Regarding A3G C38A U54C G61A, the self-cleavage was determined as 0.11. The value for A3G C17A A18G U31A U58C A64G U74C was 0.07. The value for A3G G6A U54C was 0.2; that for A3G U25C U26A C39A A57U U66C was 0.16. For the variant A3G G9A U41A U72C U78C, the self-cleavage is 0.07. The value for A3G G7U A65U was 0.15; that for A3G G36A U54C was 0.27; that for A3G G7C U41A U43C A56G U60C G73A was 0.08. With A3G C17U U26C U54C U72C the figure was 0.35; with A3G C11U U26C C40G U43C A77G, 0.08.

For the variant A3G U25C A28G U41C U67A U80C, the self-cleavage came out at 0.25. As for A3G C29U U67G U69A, the self-cleavage was 0.22. With A3G U26A A35G A56U A75G the figure was 1.21. The value for A3G U26A A28G G30A U41A U66C U67A was 0.24; that for A3G G22U A57G U60C U69C was 0.12. With A3G U41A A47G the figure was 0.59; with A3G U25C A45G A56G U69C, 0.1. For A3G G36A U58C U67C U69C U72C, the self-cleavage worked out at 0.08.

Take A3G G6C A45G A56G: the self-cleavage came out at 0.08. With A3G G9A C11G U80C the figure was 0.42. The value for A3G U26C U31C U80C was 0.57. With A3G U25A U26A A56U the figure was 0.09; with A3G U25G U26C, 0.2. For the variant A3G G10U G33C U51C A57G U72C, the self-cleavage was found to be 0.06.

For the variant A3G U25C A56U, the self-cleavage was determined as 0.44. The value for A3G C32G A64U was 0.23.

Regarding A3G U26A A56U U74C, the self-cleavage worked out at 0.56. As for A3G G9A U67A A75G, the self-cleavage was determined as 0.06. On to A3G C50A C62U U67C, for which the self-cleavage is 0.09. The value for A3G G33U A65G was 0.24; that for A3G C71A U78C C79G was 0.25; that for A3G G16U A21G U26C U43A U51A A64U was 0.05.

For A3G G42A A56U U69C, the self-cleavage stood at 0.43. With A3G C23U U41A U48C the figure was 0.12; with A3G C14U U25C A35G, 0.83. The value for A3G U25A G53A U74C was 0.49. For A3G U31C U43C, the self-cleavage was 0.21.

For A3G U26C A35G A45U U72A, the self-cleavage was found to be 0.13. The value for A3G U25C C40U U41C was 0.13; that for A3G G6A C11G C12U U25C was 0.48. With A3G G8A C11U U43C U80C the figure was 0.08; with A3G G7U U54C U58A, 0.25. As to A3G U31C A64G, the self-cleavage was determined as 0.56.

As for A3G G8A A28G G33U A45G U49C, the self-cleavage is 0.06.

With A3G U26A U41C, the self-cleavage was 0.87. The value for A3G C32U U41C A57G was 0.19; that for A3G U26C U48C was 0.12; that for A3G U25C U26C U41A U67C was 0.14. The value for A3G C23A A45G U72C A77G was 0.26; that for A3G G7A G10C G24A U43A A64G U78A was 0.06; that for A3G G8A A21G A35U U48C A57G was 0.06.

In the case of A3G U26A G30A U48A U72G, the self-cleavage was determined as 0.07. With A3G G24A U25A the figure was 0.18. The value for A3G U26C A57G U66C was 0.22; that for A3G C12G A15G U25C A28G G52A A65G was 0.17.

For A3G C32U A45G A47G U80C, the self-cleavage worked out at 0.33.
